Reference: PubChem BioAssay AID504832 (National Center for Advancing Translational Sciences (NCATS), 2011)
“And” between values parts separate entries of the source, which are not always exact repeats. Equal entries are not always repeated. Out of some 310,000 compounds screened, about 18,000 (5.8%) were called active. This list was built around the results that the source calls inconclusive (neither active nor inactive); the mix of calls is not that of the screen. Calls follow the shape of the dose curve; as a rule, active = well fitted inhibition curve with a large enough effect; inconclusive = small, poorly fitted or top-dose-only effect, or another doubt; inactive = no such curve, though single readings can be large or run the other way. Potencies of inconclusive entries are left out as doubtful fits.

Experiment: Primary qHTS for delayed death inhibitors of the malarial parasite plastid, 48 hour incubation
Conditions: P. falciparum luciferase growth in erythrocytes; series mostly up to 28.7 µM
Method in brief: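 Here the parasites carry a stable luciferase gene and grow inside erythrocytes in Albumax-based RPMI medium with compound for one erythrocytic cycle. Activity is scored as loss of luminescent signal.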
Potency is read from the fitted curve at half-maximal effect; tags tell the direction and shape of the fitted curve.

Structure (SMILES) | Potency
COc1cc(C2C(C#N)=C(N)Oc3cc(O)ccc32)cc(OC)c1OC (centres undefined) | inconclusive [inhibitor, partial curve, poor fit]
COc1ccc(OC)c(NC(=O)CSc2nc3ccccc3c(=O)n2CC2CCCO2)c1 (centres undefined) | inconclusive [inhibitor, full curve, poor fit]
COc1ccc(N(CC(=O)NCCSCc2ccco2)S(=O)(=O)c2ccccc2)cc1 | inconclusive [inhibitor, single point]
O=C(O)CCCN1C(=O)C2C3CC(C2C1=O)C1C(c2ccccc2)c2sc(=O)n(-c4ccccc4)c2SC31 (centres undefined) | inconclusive [inhibitor, single point]
O=C(NC1CCCCC1)c1ccc(S(=O)(=O)N2CCCCC2)cc1 | inconclusive [inhibitor, single point]
CCCCNC(=O)Nc1nnc(C(C)(C)C)s1 | inconclusive [inhibitor, partial curve, poor fit]
CCCCC/C=C\C/C=C\C/C=C\CCCCC(=O)O | inconclusive [inhibitor, single point]
Cc1ccc(Cn2nc(C)c(NC(=O)c3cc(-c4ccco4)on3)c2C)cc1 | inconclusive [inhibitor, partial curve, poor fit]
CC1CCCN(C(=O)c2nn(C)c3c2CSc2ccccc2-3)C1 (centres undefined) | inactive
COc1ccc(CN(C)C(C)C(=O)Nc2ccc(S(=O)(=O)N3CCOCC3)cc2)c(OC)c1 (centres undefined) | inconclusive [inhibitor, full curve, poor fit]
CC(C)c1ccc2oc(=O)cc(CN3CCN(c4ccccc4)CC3)c2c1 | active: 13.1 µM
COc1ccc(OC)c(NC(=S)N2CCN(C/C=C/c3ccccc3)CC2)c1 | inconclusive [inhibitor, partial curve, poor fit]
COc1ccc(C)cc1NC(=O)CSc1ccc(Cl)cc1 | inactive
CCCCCn1c(=N)n(CC(O)COc2ccccc2OC)c2ccccc21 (centres undefined) | active: 5.22 µM and active: 4.65 µM
Cc1ccc2[nH]c(=O)c(-c3noc(CC(C)C)n3)cc2c1 | active: 9.28 µM
CCc1nnc(NC(=O)CSc2nnc(C3CCCCC3)n2-c2cccc(Cl)c2)s1 | inconclusive [inhibitor, single point]
CCOc1ccc(S(=O)(=O)N2CCCCC2)cc1NC(=O)Cc1cccs1 | inconclusive [inhibitor, partial curve]
N#Cc1nc(COc2ccc(Br)cc2)oc1NCCCn1ccnc1 | inconclusive [inhibitor, single point]
CCCCn1c(SCc2cc(=O)n3ccsc3n2)nc2cc(C(=O)OC)ccc2c1=O | inconclusive [inhibitor, single point]
Cn1c(Oc2ccc(F)cc2)c(C=O)c2ccccc21 | inconclusive [inhibitor, partial curve, poor fit]
CCc1nc(Nc2ccc3c(c2)OCO3)c2oc3ccccc3c2n1 | inconclusive [inhibitor, single point]
CCN(CC(=O)Nc1ccccc1C(F)(F)F)C(=O)c1ccc(=O)n(Cc2ccccc2)n1 | inconclusive [inhibitor, single point]

Structure (SMILES) | Potency
COC(=O)C1=C(N)Oc2cc(C)n(CCCn3ccnc3)c(=O)c2C1c1ccc(Cl)cc1 (centres undefined) | active: 3.29 µM
CCOC(=O)c1cc(C(=O)OCC)c2cccc(C)n2c1=O | inactive
O=C(CCC(=O)c1ccc(-c2ccccc2)cc1)Nc1cccnc1 | inactive
COc1ccc(OCC(O)Cn2c(Nc3cccc(C)c3)nc3c2c(=O)n(C)c(=O)n3C)cc1 (centres undefined) | active: 2.33 µM
Cc1cccc(-n2c(/C=C/c3ccccn3)nc3ccccc3c2=O)c1 | inconclusive [inhibitor, single point]
CC(C)(C)N(CC#CCC(O)(c1ccccc1)C1CCCC1)CCO (centres undefined) | inconclusive [inhibitor, partial curve, poor fit]
COc1cc(OC)cc(N(C(=O)CNC(=O)c2cccs2)C(C(=O)NCC2CCCO2)c2ccc(OC)c(OC)c2)c1 (centres undefined) | inconclusive [inhibitor, single point]
CC(=O)c1ccc(N2CCN(C(=O)c3cc(-c4cccnc4)nc4ccc(Br)cc34)CC2)cc1 | inconclusive [inhibitor, partial curve]
CCOc1cc(C(=O)Nc2ccc(S(=O)(=O)NC3=NCCCCC3)cc2)cc(OCC)c1OCC | inconclusive [inhibitor, single point]
O=C(Nc1ccc(Cl)cc1-c1nc2ccccc2s1)c1ccco1 | inactive
CC(=O)N1CCN(C(=O)c2ccc(NS(=O)(=O)c3cc(C)ccc3C)cc2)CC1 | inconclusive [inhibitor, single point]
Cc1ccc(S(=O)(=O)N2CCC(C(=O)NC3CC3)CC2)cc1 | active: 2.33 µM
CC(C)CN(CC(C)C)S(=O)(=O)N1CCC(C(=O)NCc2ccco2)CC1 | inconclusive [inhibitor, partial curve]
COCC1CCCN(C(=O)c2cc(COc3ccc4ncccc4c3)on2)C1 (centres undefined) | inactive
CN(C(=O)c1ccccc1-c1ncc[nH]1)C1CCCN(Cc2ccccc2F)C1 (centres undefined) | inactive
Cc1cccc(C)c1OCC(=O)N[C@@H](Cc1ccccc1)[C@@H](O)C[C@H](Cc1ccccc1)NC(=O)[C@H](C(C)C)N1CCCNC1=O | active: 3.38 µM
CCOC(=O)c1[nH]c2ccc(Cl)cc2c1-c1ccccc1 | inconclusive [inhibitor, full curve, poor fit]
COC(=O)c1c(NC(=O)c2ccccc2[N+](=O)[O-])sc2c1CC(C)(C)NC2(C)C | inconclusive [inhibitor, single point]
COc1cccc(C(=O)N2CCN=C2SC)c1 | inconclusive [inhibitor, partial curve, poor fit]
COc1ccc(CCNc2nc(=S)[nH]c3cc(OC)c(OC)cc23)cc1OC | inconclusive [inhibitor, partial curve, poor fit]
O=C(c1ccc(OC2CCN(Cc3cccc(OCCO)c3)CC2)cc1)N1CCCC1 | inconclusive [inhibitor, partial curve, poor fit]
CN(C(=O)c1cnccn1)c1c(N)n(Cc2ccccc2)c(=O)[nH]c1=O | inconclusive [inhibitor, single point]

Structure (SMILES) | Potency
Oc1ccc(Br)cc1CNc1nccs1 | inconclusive [inhibitor, single point]
O=C(Nc1ccccc1)Nc1cc(S(=O)(=O)N2CCOCC2)ccc1N1CCCC1 | inconclusive [inhibitor, full curve, poor fit]
N#Cc1nn(-c2c(Cl)cc(C(F)(F)F)cc2Cl)c(N)c1S(=O)C(F)(F)F (centres undefined) | active: 1.9 µM
Cc1cc2c(n1-c1ccc(C(N)=O)cc1)CC(C)(C)CC2=O | inconclusive [inhibitor, single point]
O=C1/C(=C/c2cccs2)SC(=S)N1CC(=O)N1CCCCC1CCO (centres undefined) | inactive
COc1ccc(CC2(CO)CCN(Cc3cc4ccccc4o3)CC2)cc1 | inconclusive [inhibitor, partial curve, poor fit]
CC(=O)c1cccc(NC(=S)N2CCN(S(=O)(=O)c3ccc(F)cc3)CC2)c1 | inconclusive [inhibitor, full curve]
CCCOc1ccc(/C(O)=C2/C(=O)C(=O)N(c3ccccn3)C2c2ccc(OC)cc2)cc1C (centres undefined) | inactive
Cc1cnc(NC(=O)CCc2ccccc2)s1 | inconclusive [inhibitor, full curve, poor fit]
Fc1ccc(NC(=S)NC2CC3CCCC(C2)N3Cc2cccs2)cc1 (centres undefined) | inconclusive [inhibitor, single point]
Cc1cc(-n2c(SCC(=O)Nc3ccc(Br)cc3)nc3n[nH]c(C)c3c2=N)ccc1Cl | inconclusive [inhibitor, full curve]
CC(=O)Nc1ccc(N(C(=O)c2ccco2)C(C(=O)NC2CCCC2)c2ccc(N(C)C)cc2)cc1 (centres undefined) | inconclusive [inhibitor, single point]
COc1ccc(C2=NOC(Cn3nc(C(=O)NCc4ccccc4OC)cc3-c3ccccc3)C2)cc1 (centres undefined) | active: 13.1 µM
CS(=O)(=O)Nc1ccc(C2=NN(C(=O)c3ccco3)C(c3ccco3)C2)cc1 (centres undefined) | inconclusive [inhibitor, partial curve, poor fit]
COc1cccc(-c2nnc(NC(=O)c3cccc(F)c3)o2)c1 | inconclusive [inhibitor, single point]
Cc1[nH]c2ccccc2c1CCNC(=O)c1ccc2c(c1[N+](=O)[O-])C(=O)c1ccccc1C2=O | inconclusive [inhibitor, partial curve, poor fit]
CCCCCC1CCC(C(=O)O)CC1 (centres undefined) | inconclusive [inhibitor, single point]
COc1ccc(-c2nc3cnccn3c2Nc2ccc3c(c2)OCO3)cc1 | inconclusive [inhibitor, single point]
CCCCNC(=O)C(CC)(ONc1ccccc1C(F)(F)F)c1ccccc1OC (centres undefined) | active: 10.4 µM
O=C(CC1CCCC1)NCCS(=O)(=O)N1CCN(c2ccc(F)cc2)CC1 | inconclusive [inhibitor, single point]
